# In PubChem BioAssay (NCI):
#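 Tested at 5 concentrations; 48 h exposure; 96-well plates; endpoints linearly interpolated, else capped at highest concentration. Here, GI50 denotes the concentration required for 50% inhibition of growth. TGI is the concentration that stops growth completely.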 Square brackets hold non-standard residues; d marks the D form. Peptide text beside a SMILES is read from it. * marks the point of attachment. ξ: configuration not given here. ξW = NC(Cc1c[nH]c2ccccc12)C(=O)O; X26 = O=C(O)[C@H]1CCC[C@H]1N*; ξF = NC(Cc1ccccc1)C(=O)O; Boc = CC(C)(C)OC(=O)*; ξK = NCCCCC(N)C(=O)O; ξT = CC(O)C(N)C(=O)O; tBu = CC(C)(C)*
# Test system: NCI-H322M lung
# Assay: NCI-60 cell line screen, 48 h
Compound,TGI,GI50
CC1OC(n2cc(I)c(=O)[nH]c2=O)C=CC1=O (stereo unspecified),32.4 µM,–
O=C(Oc1ccc(OC(Oc2ccccc2)c2ccccc2)cc1)c1ccccc1 (stereo unspecified),> 31.6 µM,–
O=C1C=C(NCCc2cc(Cl)c(O)c(Cl)c2)C(=O)c2[nH]cnc21,> 100 µM,–
Cc1ccc(-c2n[nH]c(=O)n2N2C(=O)C=CC2=O)cc1,> 100 µM,–
Cc1cccc2c(N)c3cccc(C(=O)NCCN4CCOCC4)c3nc12,6.37 µM,–
NN/C(=N\S(=O)(=O)c1cccc2nsnc12)Nc1ccc(Cl)cc1,> 100 µM,–
CO[C@]12CCC(=O)N1C=Cc1c2[nH]c2ccccc12,> 100 µM,–
Oc1c2c(c3c4c1N=CC=4CCN=3)C1(C=C(Br)C(O)C(Br)=C1)CCN2 (stereo unspecified),7.58 µM,–
COC(=O)c1cn(CCCCO)nn1,> 100 µM,–
COc1ccc2c(c1)c(-c1nc(-c3cn(C)c4ncccc34)cs1)cn2CCCCN1CCOCC1,3.58 µM,1.55 µM
OCCN1CCN(c2nc(Nc3ccc(-c4nc5ccccc5[nH]4)cc3)c3cn[nH]c3n2)CC1,3.26 µM,1.76 µM
CC(=O)OC(C#N)CC(C)(C)/[N+]([O-])=[N+](\[O-])C(C)(C)CC(C#N)OC(C)=O (stereo unspecified),> 100 µM,–
COc1ccc(NC(=O)CC(=O)n2nc(-c3ccccc3)c(N=Nc3ccccc3C)c2-c2ccccc2)cc1,> 100 µM,–
CN1CCc2cc(O)c3cc2C1Cc1ccc(cc1)Oc1cc(ccc1O)CC1c2c(cc4c(c2O3)OCO4)CCN1C (stereo unspecified),> 100 µM,–
Nc1ccc(-c2nc3ccccc3s2)cc1I,> 100 µM,–
Cc1ccc(Cc2nn(C)c(=O)n2-n2cccc2)cc1,> 100 µM,–
N=C(N)c1ccc(-c2ccc(-c3ccc(Cl)c(Cl)c3)o2)nc1,3.24 µM,1.72 µM
COCO[C@@H]1CC2C=Nc3cc(OCc4ccccc4)c(OC)cc3C(=O)N2C1 (stereo partly specified),7.28 µM,1.32 µM
CCCC(=O)Nc1ncnc2c1ncn2C1OC2COP(=O)(O)OC2C1OC(=O)CCC (stereo unspecified),> 1000 µM,> 1000 µM
Cc1ccc(C(=O)c2[nH]c(Nc3ccc(Cl)cc3)c(C(=S)Nc3ccccc3)c2N)cc1,27.7 µM,–
CS(=O)(=O)N(CC(=O)O)Cc1ccccc1,> 100 µM,–
CCOC1=C2C(C)(CCC3[C@@]4(C)C=CC(=O)C(C)(C)C4CC(O)[C@@]23C)C(c2ccoc2)C1=O (stereo partly specified),> 100 µM,–
C=CCOCn1ccc(NC(=O)c2ccccc2)nc1=O,> 100 µM,–
O=C1CCCCCCCCCCC1CN(Cc1ccccc1)Cc1ccccc1 (stereo unspecified),> 100 µM,–

Compound,TGI,GI50
CC(C)NCCCCCNc1cc(O)cc2cccnc12,> 100 µM,> 56.4 µM
N#Cc1nc(NC(=O)c2ccccc2)sc1N,> 10 µM,–
CSC1CC2C(CC1(C)SC)C2(C)C (stereo unspecified),> 100 µM,–
O=C1c2ccccc2-n2c1nc1cc(Cl)ccc1c2=O,> 100 µM,–
CC(C)N(C(=O)C12C3C4C5C3C1(C#N)C5C42)C(C)C (stereo unspecified),> 100 µM,–
O=C1CSC(c2ccccc2[N+](=O)[O-])N1c1ccc(-n2c(-c3ccccc3)nc3ccccc3c2=O)cc1 (stereo unspecified),> 100 µM,–
N#C/C(=C\c1ccc([N+](=O)[O-])s1)c1nc2cc(Br)ccc2s1,> 100 µM,> 100 µM
CCCCCCCSCC1OC(n2cnc3c(N)ncnc32)C(O)C1O (stereo unspecified),> 100 µM,–
CCCCC/C=C\C/C=C/CCCCCCCCNC(=O)Nc1ccc([N+](=O)[O-])cc1,> 100 µM,49.1 µM
CC(=O)OC1CC(C)c2c(Cl)ncnc21 (stereo unspecified),> 100 µM,> 100 µM
O=C(Nc1ccc(N2C(=O)CSC2c2cccs2)cc1)c1ccc(N2C(=O)CSC2c2cccs2)cc1 (stereo unspecified),> 100 µM,–
Nc1ccn(CC(CO)CC(c2ccccc2)P(=O)(O)O)c(=O)n1 (stereo unspecified),> 100 µM,–
CC1C(=O)CC[C@@]2(C)C(=O)CCCC12O (stereo partly specified),> 100 µM,–
O=C(Nc1ccc(Cl)cc1F)c1cc(Cl)ccc1O,–,0.329 µM
CC1=C(c2ccc(C)cc2)NC(=S)C(C)C(c2ccc(C)cc2)=N1 (stereo unspecified),> 100 µM,–
Cc1n(-c2ccccc2)c2c([n+]1Cc1ccc([N+](=O)[O-])cc1)C(=O)c1ccccc1C2=O,6.87 µM,–
COc1ccc(/C(Cl)=C(\CNc2ccccn2)c2ccccc2)cc1OC,> 100 µM,–
CN(C)C=Nc1c(Br)cc(Br)c2nonc12,> 100 µM,–
CC(OC(C)(C)C)C(NC(=O)C(CCCCNC(=O)OC(C)(C)C)NC(=O)C(Cc1c[nH]c2ccccc12)NC(=O)C(N)Cc1ccccc1)C(=O)NC(Cc1ccccc1)C(=O)N[C@@H]1CCC[C@@H]1C(=O)O (stereo partly specified) (H-[ξF][ξW][ξK](Boc)[ξT](tBu)[ξF]-X26),> 100 µM,–
CN(C)C(=O)C(F)(F)C(c1ccc(C(F)(F)F)cc1)C1C(=O)N(C)C(=O)N(C)C1=O (stereo unspecified),> 100 µM,–
Cc1ccc2nc(CC(=O)c3ccc4ccccc4c3)c(=O)[nH]c2c1,> 100 µM,–
COc1ccc2[nH]cc(CN3CCC(CO)(c4ccccc4)CC3)c2c1,> 100 µM,–
CCNC(=O)c1ccc2c(c1)nc(-c1ccc(Cl)cc1)n2-c1cc(C(C)(C)C)[nH]n1,> 100 µM,15.8 µM
COc1ccc(C(=O)C(CC2C(=O)CC(C)(C)C(C(=O)C(=O)Nc3c(C)cccc3C)C2=O)c2ccc(OC)cc2)cc1 (stereo unspecified),> 100 µM,–

Compound,TGI,GI50
O=[N+]([O-])c1ccc(NN=C2c3ccccc3Cc3ccccc32)c([N+](=O)[O-])c1,> 100 µM,–
CCN(CC)c1nc(=O)c(C(=O)C(C)(C)C)c(C(C)(C)C)o1,> 100 µM,–
CC1=C2c3ccccc3N(S(=O)(=O)c3ccccc3)[C@H]2[C@H](C(=O)N2C3CC4CC[C@@]3(CS2(=O)=O)C4(C)C)CC1 (stereo partly specified),> 100 µM,–
C=CCN(c1cc(OCc2ccccc2)c2c(c1)c(C)cn2S(=O)(=O)c1ccccc1)S(C)(=O)=O,> 100 µM,–
N#CC(C(=O)C(=O)Nc1ccc(Cl)c(Cl)c1)c1ccc(Cl)cc1 (stereo unspecified),> 100 µM,–
Clc1ccc2c(Cl)nc(-c3ccccc3)nc2c1,> 100 µM,–
Cc1cn(CCCCOC(=O)NC(CCCNC(N)=O)C(=O)O)c(=O)[nH]c1=O (stereo unspecified),> 100 µM,–
CCCCCCCCCCCCCCCCNc1ccc2c(c1)OCCOCCOCCOCCO2,15.3 µM,–
O=c1[nH]cnc2c1ncn2C1SC(CO)C(O)C1O (stereo unspecified),> 100 µM,–
O=C1c2ccccc2CCC1(Br)Br,28.8 µM,14.6 µM
O=c1nc(-c2ccccc2)scc1-c1ccccc1,> 100 µM,–
CN(C)c1ccc(/C=C2\N=C(c3ccccc3)N(/N=C3\C(=O)Nc4ccccc43)C2=O)cc1,> 100 µM,–
C(=C\c1nc2ccccc2s1)/c1ccc(N2CCOCC2)s1,> 100 µM,> 100 µM
CC1=C2[C@@H](c3ccccc3)C3C=CC2(c2ccccc23)N(C(=O)Nc2cccc3ccccc23)C1=O (stereo partly specified),> 100 µM,–
O=C(CC(=O)c1cccc([N+](=O)[O-])c1)C(=O)Nc1nc([N+](=O)[O-])cs1,> 100 µM,–
CN1CC(S(=O)(=O)c2ccccc2)CC(S(=O)(=O)c2ccccc2)C1c1ccccc1 (stereo unspecified),27.4 µM,–
O=C(/C=C/c1ccc(O)cc1)c1cc(O)cc(O)c1,31.4 µM,–
Cc1nn(-c2ccccc2)c(C)c1/C=N/N1CCN(Cc2ccccc2)CC1,78.3 µM,8.27 µM
O=C1Cc2c(-c3ccccc3)cc(-c3ccc4ccccc4c3)nc2-c2ccccc2N1,> 100 µM,–
O=C(NCc1cccs1)OC1CC2CCC1C2 (stereo unspecified),> 100 µM,–
N#Cc1nc(Nc2ccc(Cl)cc2)sc1N,> 100 µM,–
C=C(CN(C)C)C(=O)c1ccc(OC)cc1,41.8 µM,–
CN1CCN(CCCOc2ccc3nc(Nc4ccc(C(F)(F)F)c(Cl)c4)ccc3c2)CC1,3.41 µM,1.69 µM
CC(=O)NC(CCCOC(C)=O)C(=O)NC(CCCOC(C)=O)C(=O)NC(CCCOC(C)=O)C(=O)NC(Cc1ccc([N+](=O)[O-])cc1)C(=O)NCC(=O)OCc1ccccc1 (stereo unspecified),> 100 µM,–
